Test results: patent publication US8592455B2 (priority 2008, dated 2013)
pEC50: −log10 of the molar value.

Tested on: KMS11 cells
Assay: cells
Conditions: Homo sapiens, KMS-11, 72 h, read-out: KMS11-lluc EC50

Q: How did the pEC50 turn out when `C[C@@H]1C[C@H](c2ccncc2NC(=O)c2cccc(-c3c(F)cccc3F)n2)C[C@H](N)[C@H]1O` (stereo in doubt) [Example 52, N-(4-((1S,3S,4S,5R)-3-amino-4-hydroxy-5-methylcyclohexyl)pyridin-3-yl)-6-(2,6-difluorophenyl)picolinamide] was run?
A: 6.08

Q: With `C[C@@H]1C[C@H](N)C[C@H](c2ccncc2NC(=O)c2ccc(F)c(C3CCCCC3)n2)C1` (stereo in doubt) [Example 91, N-(4-(3-amino-5-methylcyclohexyl)pyridin-3-yl)-6-cyclohexyl-5-fluoropicolinamide] as the compound, how does the pEC50 read?
A: 5.54

Q: With `Nc1ccc(-c2c(F)cccc2F)nc1C(=O)Nc1cnccc1[C@@H]1CC[C@H](O)[C@H](N)C1` (stereo in doubt) [Example 102, 3-amino-N-(4-(3-amino-4-hydroxycyclohexyl)pyridin-3-yl)-6-(2,6-difluorophenyl)picolinamide] as the compound, how does the pEC50 read?
A: 6.06

Q: How did the pEC50 turn out when `C[C@H]1C[C@@H](c2ccncc2NC(=O)c2nc(-c3c(F)cccc3F)c(F)cc2N)C[C@@H](N)[C@@H]1O` (stereo in doubt) [Example 130, 3-amino-N-(4-(3-amino-4-hydroxy-5-methylcyclohexyl)pyridin-3-yl)-6-(2,6-difluorophenyl)-5-fluoropicolinamide] was run?
A: 6.00

Q: `C[C@H]1C[C@@H](c2ccncc2NC(=O)c2nc(-c3c(F)cccc3F)c(F)cc2N)C[C@@H](N)[C@H]1O` (stereo in doubt) [Example 132, 3-amino-N-(4-(3-amino-4-hydroxy-5-methylcyclohexyl)pyridin-3-yl)-6-(2,6-difluorophenyl)-5-fluoropicolinamide] was tested. Which pEC50 did it give?
A: 6.42

Q: How did the pEC50 turn out when `C[C@@H]1C[C@H](O)C[C@H](c2ccncc2NC(=O)c2ccc(F)c(-c3c(F)cccc3F)n2)C1` [Example 1, 6-(2,6-difluorophenyl)-5-fluoro-N-(4-((1R,3S,5S)-3-hydroxy-5-methylcyclohexyl)pyridin-3-yl)picolinamide] was run?
A: 5.12

Q: `C[C@H]1CN(c2ccncc2NC(=O)c2ccc(F)c(-c3c(F)cc(O)cc3F)n2)C[C@@H](N)[C@@H]1O` [Example 2, N-(4-((3R,4R,5S)-3-amino-4-hydroxy-5-methylpiperidin-1-yl)pyridin-3-yl)-6-(2,6-difluoro-4-hydroxyphenyl)-5-fluoropicolinamide] was tested. Which pEC50 did it give?
A: 7.15

Q: With `C[C@H]1CN(c2ccncc2NC(=O)c2nc(-c3c(F)cccc3F)c(F)cc2N)C[C@@H](N)[C@@H]1O` [Example 3, 3-amino-N-(4-((3R,4R,5S)-3-amino-4-hydroxy-5-methylpiperidin-1-yl)pyridin-3-yl)-6-(2,6-difluorophenyl)-5-fluoropicolinamide] as the compound, how does the pEC50 read?
A: 8.00

Q: `C[C@H]1C[C@@H](c2ccncc2NC(=O)c2ccc(F)c(-c3c(F)cc(O)cc3F)n2)C[C@@H](N)[C@@H]1O` [Example 4, N-(4-((1R,3R,4R,5S)-3-amino-4-hydroxy-5-methylcyclohexyl)pyridin-3-yl)-6-(2,6-difluoro-4-hydroxyphenyl)-5-fluoropicolinamide] was tested. Which pEC50 did it give?
A: 5.89

Q: How did the pEC50 turn out when `C[C@H]1C[C@@H](c2ccncc2NC(=O)c2ccc(F)c(-c3cc(O)ccc3F)n2)C[C@@H](N)[C@@H]1O` [Example 5, N-(4-((1R,3R,4R,5S)-3-amino-4-hydroxy-5-methylcyclohexyl)pyridin-3-yl)-5-fluoro-6-(2-fluoro-5-hydroxyphenyl)picolinamide] was run?
A: 5.32

Q: With `N[C@H]1CCC[C@@H](c2ccncc2NC(=O)c2cccc(-c3cc(O)ccc3F)n2)C1` [Example 7, N-(4-((1R,3S)-3-aminocyclohexyl)pyridin-3-yl)-6-(2-fluoro-5-hydroxyphenyl)picolinamide] as the compound, how does the pEC50 read?
A: 6.48

Q: With `N[C@H]1CCC[C@@H](c2ccncc2NC(=O)c2cccc(-c3c(F)cc(O)cc3F)n2)C1` [Example 8, N-(4-((1R,3S)-3-aminocyclohexyl)pyridin-3-yl)-6-(2,6-difluoro-4-hydroxyphenyl)picolinamide] as the compound, how does the pEC50 read?
A: 6.29

Q: How did the pEC50 turn out when `N[C@H]1CCC[C@@H](c2ccncc2NC(=O)c2ccc(F)c(-c3ccc(O)cc3F)n2)C1` [Example 9, N-(4-((1R,3S)-3-aminocyclohexyl)pyridin-3-yl)-5-fluoro-6-(2-fluoro-4-hydroxyphenyl)picolinamide] was run?
A: 5.80

Q: `CC1(C)C[C@H](N)C[C@H](c2ccncc2NC(=O)c2ccc(F)c(-c3ccc(O)cc3F)n2)C1` [Example 10, N-(4-((1R,5R)-5-amino-3,3-dimethylcyclohexyl)pyridin-3-yl)-5-fluoro-6-(2-fluoro-4-hydroxyphenyl)picolinamide] was tested. Which pEC50 did it give?
A: 5.54

Q: How did the pEC50 turn out when `Cc1ccc(F)c(-c2nc(C(=O)Nc3cnccc3[C@H]3C[C@@H](N)CC(C)(C)C3)ccc2F)c1F` [Example 11, N-(4-((1R,5R)-5-amino-3,3-dimethylcyclohexyl)pyridin-3-yl)-6-(2,6-difluoro-3-methylphenyl)-5-fluoropicolinamide] was run?
A: 5.59

Q: `Cc1ccc(F)c(-c2cccc(C(=O)Nc3cnccc3N3C[C@@H](N)[C@H](O)[C@@H](C)C3)n2)c1F` [Example 13, N-(4-((3R,4R,5S)-3-amino-4-hydroxy-5-methylpiperidin-1-yl)pyridin-3-yl)-6-(2,6-difluoro-3-methylphenyl)picolinamide] was tested. Which pEC50 did it give?
A: 6.17

Q: `N[C@H]1CCC[C@@H](c2ccncc2NC(=O)c2ccc(F)c(-c3cc(F)cc(F)c3F)n2)C1` [Example 14, N-(4-((1R,3S)-3-aminocyclohexyl)pyridin-3-yl)-5-fluoro-6-(2,3,5-trifluorophenyl)picolinamide] was tested. Which pEC50 did it give?
A: 5.07

Q: With `CCc1ccc(F)c(-c2cccc(C(=O)Nc3cnccc3[C@H]3C[C@@H](N)[C@H](O)[C@@H](C)C3)n2)c1F` [Example 15, N-(4-((1R,3R,4R,5S)-3-amino-4-hydroxy-5-methylcyclohexyl)pyridin-3-yl)-6-(3-ethyl-2,6-difluorophenyl)picolinamide] as the compound, how does the pEC50 read?
A: 5.26

Q: `C[C@H]1CN(c2ccncc2NC(=O)c2ccc(F)c(C3CCCCC3)n2)C[C@@H](N)[C@@H]1O` [Example 16, N-(4-((3R,4R,5S)-3-amino-4-hydroxy-5-methylpiperidin-1-yl)pyridin-3-yl)-6-cyclohexyl-5-fluoropicolinamide] was tested. Which pEC50 did it give?
A: 5.77

Q: With `CCc1ccc(F)c(-c2cccc(C(=O)Nc3cnccc3[C@H]3C[C@@H](N)[C@@H](O)[C@@H](C)C3)n2)c1F` [Example 17, N-(4-((1R,3R,4S,5S)-3-amino-4-hydroxy-5-methylcyclohexyl)pyridin-3-yl)-6-(3-ethyl-2,6-difluorophenyl)picolinamide] as the compound, how does the pEC50 read?
A: 5.46

Q: How did the pEC50 turn out when `CCc1ccc(F)c(-c2cccc(C(=O)Nc3cnccc3[C@@H]3CCC[C@H](N)C3)n2)c1F` [Example 19, N-(4-((1R,3S)-3-aminocyclohexyl)pyridin-3-yl)-6-(3-ethyl-2,6-difluorophenyl)picolinamide] was run?
A: 5.35

Q: How did the pEC50 turn out when `Cc1ccc(F)c(-c2nc(C(=O)Nc3cnccc3[C@@H]3CCC[C@H](N)C3)ccc2F)c1F` [Example 20, N-(4-((1R,3S)-3-aminocyclohexyl)pyridin-3-yl)-6-(2,6-difluoro-3-methylphenyl)-5-fluoropicolinamide] was run?
A: 5.82

Q: `CCc1ccc(F)c(-c2cccc(C(=O)Nc3cnccc3[C@@H]3C[C@H](C)C[C@H](N)C3)n2)c1F` [Example 21, N-(4-((1R,3S,5S)-3-amino-5-methylcyclohexyl)pyridin-3-yl)-6-(3-ethyl-2,6-difluorophenyl)picolinamide] was tested. Which pEC50 did it give?
A: 5.48

Q: With `Cc1ccc(F)c(-c2nc(C(=O)Nc3cnccc3N3C[C@@H](N)[C@H](O)[C@@H](C)C3)ccc2F)c1F` [Example 22, N-(4-((3R,4R,5S)-3-amino-4-hydroxy-5-methylpiperidin-1-yl)pyridin-3-yl)-6-(2,6-difluoro-3-methylphenyl)-5-fluoropicolinamide] as the compound, how does the pEC50 read?
A: 6.68

Q: How did the pEC50 turn out when `C[C@H]1CN(c2ccncc2NC(=O)c2cccc(-c3ccccc3F)n2)C[C@@H](N)[C@@H]1O` [Example 23, N-(4-((3R,4R,5S)-3-amino-4-hydroxy-5-methylpiperidin-1-yl)pyridin-3-yl)-6-(2-fluorophenyl)picolinamide] was run?
A: 5.72

Q: `C[C@H]1CN(c2ccncc2NC(=O)c2nc(-c3c(F)cccc3F)ccc2F)C[C@@H](N)[C@@H]1O` [Example 24, N-(4-((3R,4R,5S)-3-amino-4-hydroxy-5-methylpiperidin-1-yl)pyridin-3-yl)-6-(2,6-difluorophenyl)-3-fluoropicolinamide] was tested. Which pEC50 did it give?
A: 6.21

Q: `C[C@H]1CN(c2ccncc2NC(=O)c2ccc(F)c(-c3ccccc3F)n2)C[C@@H](N)[C@@H]1O` [Example 25, N-(4-((3R,4R,5S)-3-amino-4-hydroxy-5-methylpiperidin-1-yl)pyridin-3-yl)-5-fluoro-6-(2-fluorophenyl)picolinamide] was tested. Which pEC50 did it give?
A: 6.43

Q: With `C[C@H]1CN(c2ccncc2NC(=O)c2cccc(-c3c(F)cccc3F)n2)C[C@@H](N)[C@@H]1O` [Example 26, N-(4-((3R,4R,5S)-3-amino-4-hydroxy-5-methylpiperidin-1-yl)pyridin-3-yl)-6-(2,6-difluorophenyl)picolinamide] as the compound, how does the pEC50 read?
A: 6.54

Q: With `Cc1ccc(F)c(-c2nc(C(=O)Nc3cnccc3[C@@H]3C[C@H](C)C[C@H](N)C3)ccc2F)c1F` [Example 27, N-(4-((1R,3S,5S)-3-amino-5-methylcyclohexyl)pyridin-3-yl)-6-(2,6-difluoro-3-methylphenyl)-5-fluoropicolinamide] as the compound, how does the pEC50 read?
A: 6.02

Q: `Cc1ccc(F)c(-c2cccc(C(=O)Nc3cnccc3[C@@H]3CCC[C@H](N)C3)n2)c1F` [Example 28, N-(4-((1R,3S)-3-aminocyclohexyl)pyridin-3-yl)-6-(2,6-difluoro-3-methylphenyl)picolinamide] was tested. Which pEC50 did it give?
A: 5.66

Q: With `Cc1ccc(F)c(-c2cccc(C(=O)Nc3cnccc3[C@@H]3C[C@H](C)C[C@H](N)C3)n2)c1F` [Example 29, N-(4-((1R,3S,5S)-3-amino-5-methylcyclohexyl)pyridin-3-yl)-6-(2,6-difluoro-3-methylphenyl)picolinamide] as the compound, how does the pEC50 read?
A: 5.85

Q: With `Cc1ccc(F)c(-c2cccc(C(=O)Nc3cnccc3[C@H]3C[C@@H](N)[C@H](O)[C@@H](C)C3)n2)c1F` [Example 30, N-(4-((1R,3R,4R,5S)-3-amino-4-hydroxy-5-methylcyclohexyl)pyridin-3-yl)-6-(2,6-difluoro-3-methylphenyl)picolinamide] as the compound, how does the pEC50 read?
A: 5.68

Q: How did the pEC50 turn out when `Cc1ccc(F)c(-c2cccc(C(=O)Nc3cnccc3[C@H]3C[C@@H](N)[C@@H](O)[C@@H](C)C3)n2)c1F` [Example 31, N-(4-((1R,3R,4S,5S)-3-amino-4-hydroxy-5-methylcyclohexyl)pyridin-3-yl)-6-(2,6-difluoro-3-methylphenyl)picolinamide] was run?
A: 5.96
